The whole screen tested about 310,000 compounds, of which about 2,200 (0.71%) showed an effect of 50% or more. Effects have a minus sign here. The list shows a part of the results.
target: human ether-à-go-go-related gene (hERG) potassium channel (human, UniProt Q12809); assay: primary screen, population patch clamp on CHO cells stably expressing hERG
Sequence (Q12809 whole entry, looked up): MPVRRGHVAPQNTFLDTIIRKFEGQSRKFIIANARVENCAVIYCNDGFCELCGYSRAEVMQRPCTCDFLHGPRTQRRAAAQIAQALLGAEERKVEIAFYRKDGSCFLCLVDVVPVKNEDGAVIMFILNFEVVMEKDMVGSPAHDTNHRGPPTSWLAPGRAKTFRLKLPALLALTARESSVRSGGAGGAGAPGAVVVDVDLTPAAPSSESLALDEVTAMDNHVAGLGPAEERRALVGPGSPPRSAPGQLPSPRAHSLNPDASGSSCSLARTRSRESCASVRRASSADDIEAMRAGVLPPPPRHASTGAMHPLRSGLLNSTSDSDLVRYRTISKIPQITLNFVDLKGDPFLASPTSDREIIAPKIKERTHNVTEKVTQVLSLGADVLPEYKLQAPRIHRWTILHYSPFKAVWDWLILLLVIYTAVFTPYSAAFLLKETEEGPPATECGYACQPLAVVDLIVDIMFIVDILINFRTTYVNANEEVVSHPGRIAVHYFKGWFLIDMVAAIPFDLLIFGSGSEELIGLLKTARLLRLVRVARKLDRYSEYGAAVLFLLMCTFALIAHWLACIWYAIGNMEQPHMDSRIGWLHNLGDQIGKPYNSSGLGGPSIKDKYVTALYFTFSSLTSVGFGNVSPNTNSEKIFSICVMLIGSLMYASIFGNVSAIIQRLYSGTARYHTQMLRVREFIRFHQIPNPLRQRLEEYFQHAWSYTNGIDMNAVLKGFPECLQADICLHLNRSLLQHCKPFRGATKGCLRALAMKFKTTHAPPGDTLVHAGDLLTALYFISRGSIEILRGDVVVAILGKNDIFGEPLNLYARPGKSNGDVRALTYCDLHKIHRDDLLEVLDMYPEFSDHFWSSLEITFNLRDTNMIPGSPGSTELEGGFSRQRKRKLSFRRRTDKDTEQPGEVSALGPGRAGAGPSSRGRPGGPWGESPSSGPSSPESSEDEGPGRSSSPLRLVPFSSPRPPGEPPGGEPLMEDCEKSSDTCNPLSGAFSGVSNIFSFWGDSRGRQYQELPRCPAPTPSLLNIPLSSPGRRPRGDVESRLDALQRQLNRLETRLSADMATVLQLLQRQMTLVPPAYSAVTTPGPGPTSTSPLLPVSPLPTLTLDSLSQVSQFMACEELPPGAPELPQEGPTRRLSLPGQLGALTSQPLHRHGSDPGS

Row | SMILES | hERG current change (%, negative = inhibition) at 1uM [%]
1 | CC(=O)Nc1ccc(NC(=O)c2cc(C)nn2-c2ccccc2)cc1 | 6.68
2 | CCOC(=O)c1c(C)nc2c(c1C)c(=O)oc1ccccc12 | 5.46
3 | CN1c2ccccc2C2(C)CCCC3=Cc4cc([N+](=O)[O-])cc([N+](=O)[O-])c4OC312 (stereo not shown) | 10.2
4 | CN(C)S(=O)(=O)c1cccc(C(=O)C2=C3SC=C(c4ccccc4)N3CC2)c1 | 5.05
5 | O=C1N=c2ccccc2=C1c1[nH]c(=S)[nH]c1O | 20.5
6 | COc1cccc(C2/C(=C(/O)c3ccc4c(c3)OCO4)C(=O)C(=O)N2CCN2CCOCC2)c1 (stereo not shown) | 12.1
7 | COc1ccc(C(=O)Nc2ccccc2NC(=O)c2ccco2)c(OC)c1 | -5.17
8 | Cc1ccnc(NC(=O)c2ccc(COc3c(F)c(F)cc(F)c3F)o2)c1 | 16.1
9 | COCCN(C(=O)/C=C/c1ccccc1)c1nnc(-c2cccnc2)s1 | 8.57
10 | CCN(Cc1cnn(C)c1)Cc1nc(Cc2ccccc2Cl)no1 | 3.47
11 | COc1ccc(S(=O)(=O)NCC(=O)N(Cc2ccco2)C(C(=O)NC(C)(C)C)C(C)C)cc1 (stereo not shown) | -4.52
12 | O=C(CSc1nnnn1-c1cccnc1)Nc1cccc(Cl)c1 | 9.13
13 | CCOCCCNc1nc(C(F)(F)F)nc2c1nnn2Cc1ccccc1Cl | 15.9
14 | COc1ccc(C(C(=O)NC2CCCC2)N(CCN2CCOCC2)C(=O)c2ccc(OC)c(OC)c2)cc1 (stereo not shown) | 6.36
15 | O=C(c1csc2c1CCCC2)N1CCCCC1 | 14.6
16 | CCOc1ccc(CN(C)C(=O)CN2C(=O)NC(c3ccccc3)(c3ccccc3)C2=O)cc1 | 11.9
17 | CCn1c(SCC(=O)Nc2ccccc2F)nnc1-c1ccoc1C | 2.43
18 | CC(C)(C)c1ccc(S(=O)(=O)NCc2ccc(C(=O)NCC3CCCO3)cc2)cc1 (stereo not shown) | 16.7
19 | CC(Oc1ccc(F)cc1)C(=O)Nc1ccc2ccccc2c1 (stereo not shown) | 11.5
20 | Cc1ccc(NC(=O)CC(NC(=O)c2ccccc2Cl)c2ccccc2)nc1 (stereo not shown) | 6.25
21 | O=C(Cc1ccccc1)NNC(=S)Nc1ccc(Cl)cc1 | 10.8
22 | NC(=O)Cc1nc2scc(-c3ccccc3)c2c(=O)[nH]1 | 15.1

Row | SMILES | hERG current change (%, negative = inhibition) at 1uM [%]
23 | O=C(Cn1nc(-c2ccc3c(c2)OCCO3)ccc1=O)Nc1ccc(N2CCOCC2)cc1 | 6.55
24 | O=C(Nc1ccc2c(c1)OCO2)c1ccc(N2C(=O)c3ccccc3C2=O)cc1 | -2.24
25 | CCN(CC)C(=O)CSc1nnc(-n2nc(C)cc2C)c2ccccc12 | 11.2
26 | O=C(c1cc2nc(-c3ccccc3)cc(C(F)(F)F)n2n1)N1CCOCC1 | -10.5
27 | CCOC(=O)C1(CCc2ccccc2)CCN(C(=O)CCn2cncn2)CC1 | -34
28 | CCOC(=O)N1CCN(C(c2cccnc2)c2ccc3cccnc3c2O)CC1 (stereo not shown) | 10.5
29 | Cn1c(SCC#N)nnc1-c1ccc2c(c1)OCO2 | 18
30 | C(=C\c1ccco1)/C=N/n1cnnc1 | 10.6
31 | Nc1ccc(C(=O)Nc2ccco2)cc1 | 11.5
32 | CCCn1c(=O)c2[nH]cnc2n(-c2ccc(Cl)cc2)c1=O | 10.3
33 | CCN1C(=O)C2(Nc3ccccc3-c3nc4ccccc4n32)c2cc(OC)ccc21 (stereo not shown) | 8.77
34 | CCOc1ccc(CCNC(=O)c2oc3c(c2C)-c2[nH]ncc2CC3)cc1OCC | 2.09
35 | C=CCn1c(O)c(C(C)=NCc2ccc3c(c2)OCO3)c(=O)[nH]c1=O | 5.62
36 | Cc1c(C(=O)O)nn(-c2ccccc2)c(=O)c1C#N | 6.47
37 | Oc1ccc(-c2onc(C(F)(F)F)c2-c2cscn2)c(O)c1 | 9.18
38 | O=C(O)CCC(=O)Nc1cc(C(F)(F)F)cc(C(F)(F)F)c1 | 17.3
39 | CC(NC(=O)C(=O)c1cn(CC(=O)N2CCOCC2)c2ccccc12)c1ccccc1 (stereo not shown) | 8.13
40 | COc1ccc(CCNC(=O)c2cnn3c(C(F)F)cc(C)nc23)cc1OC | 5.69
41 | Nc1cc(S(=O)(=O)N2CCOCC2)ccc1Oc1ccc(F)cc1 | 10.8
42 | Cc1nnc(SCC2=C(C(=O)O)N3C(=O)[C@@H](NC(=O)Cn4cnnn4)[C@H]3SC2)s1 | 7.22
43 | Cl.N[C@@H](Cc1c[nH]c2ccccc12)c1nnc(SCc2ccccc2)o1 | 8.51

Reference: publication PMC4336329 (PLoS ONE, 2015)
